# Out of some 370,000 compounds screened, about 150 (0.041%) were called active. Inconclusive means that the source gave no clear call. Such entries were picked first, then a sample of the others. The call rests on the fitted dose curve; in most records, active means well fitted inhibition curve with a large enough effect; inconclusive means small, poorly fitted or top-dose-only effect; inactive means flat fitted curve, though single readings scatter. Potencies of inconclusive entries are left out as doubtful fits.
# Target: Beta-lactamase (Escherichia coli (strain K12)) (UniProt P00811)
# Test: qHTS Inhibitors of AmpC Beta-Lactamase (assay with detergent); further: nearly all actives have a fitted effect of over 25% in size;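 on activity change, negative = inhibition: 0% = no-compound wells and -100% = no-enzyme wells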
# Conditions: AmpC hydrolysis of nitrocefin, absorbance 480 nm, 0.01% Triton; activity change, negative = inhibition: at 114 µM (top of the series)
# Summary of the method: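 20 mM phosphate pH 7.0 + 0.01% (detergent screen) or 0.0001% Triton X-100; 5.3 nM AmpC reagent; cpd preinc 15 min RT; nitrocefin (800 uM stock) to start; A480 q20 s × 4 min; Activity was normalised to no-enzyme and no-compound control wells.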
# Potency means the concentration at half of the fitted maximal effect; tags describe the fitted curve by direction and shape.
# Sequence of UniProt P00811 (P00811 whole entry, looked up): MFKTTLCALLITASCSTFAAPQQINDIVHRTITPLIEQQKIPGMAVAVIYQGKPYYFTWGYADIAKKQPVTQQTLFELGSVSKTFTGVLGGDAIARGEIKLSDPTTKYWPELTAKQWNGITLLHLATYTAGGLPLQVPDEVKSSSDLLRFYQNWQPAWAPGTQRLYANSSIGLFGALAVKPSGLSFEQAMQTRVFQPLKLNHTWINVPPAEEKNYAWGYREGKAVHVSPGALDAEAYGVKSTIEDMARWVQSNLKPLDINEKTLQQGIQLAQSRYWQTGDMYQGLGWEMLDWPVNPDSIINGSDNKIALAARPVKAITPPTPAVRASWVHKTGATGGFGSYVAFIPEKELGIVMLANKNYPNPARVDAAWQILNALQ
SMILES,Potency,"activity change, negative = inhibition"
Cc1occc1-c1nnc(SCC(=O)N2CC(=O)Nc3ccccc32)n1CC(C)C,"inconclusive [inhibitor, full curve, poor fit]",–
CN1CCCC1CCNC1C2CC3CC(C2)CC1C3 (centres undefined),"inconclusive [inhibitor, full curve]",–
CC(=O)Cc1nsc(NC(=O)c2cccs2)n1,"inconclusive [inhibitor, partial curve, poor fit]",–
CCOC(=O)[C@H]1[C@H]2COc3ccc(Br)cc3[C@@H]2N2C(=O)c3ccc(Cl)cc3NC(=O)[C@@]12C,"inconclusive [inhibitor, full curve]",–
COC(=O)c1ccc(CSc2nnc(Nc3ccc(OC)cc3)s2)o1,"inconclusive [inhibitor, single point]",–
C=CCOc1ccc(/C=C/C(=O)OCC(=O)NCC2CCCO2)cc1 (centres undefined),"inconclusive [inhibitor, full curve, poor fit]",–
COC(=O)c1sccc1S(=O)(=O)N(CC(=O)NCc1ccccc1)c1ccc(C)cc1,–,inactive: 12.6%
COC(=O)c1cc(NC(=O)c2ccc(C)cc2)c(=O)oc1C,–,inactive: 3.14%
O=C(c1ccc(F)cc1)c1c[nH]c(C(=O)NCCCN2CCOCC2)c1,"inconclusive [inhibitor, full curve, poor fit]",–
CCOC(=O)C1=C(c2ccccc2)Nc2ncnn2C1c1cccc(OC)c1OC (centres undefined),"inconclusive [inhibitor, full curve]",–
COc1ccccc1N1CCN(S(=O)(=O)CCNC(=O)Cc2ccc(F)cc2)CC1,"inconclusive [inhibitor, partial curve]",–
Cn1c(N)c(C(=O)COC(=O)Cc2ccsc2)c(=O)n(C)c1=O,–,inactive: 1.1%
O=C(NN1C(=O)c2ccccc2NC1c1ccc([N+](=O)[O-])o1)c1ccc(Br)cc1 (centres undefined),–,inactive: -15%
Cc1csc2c(=O)sc(NC(=O)c3ccc(F)cc3Cl)nc12,–,inactive: -5.04%
Cc1ccc2c(c1)N(CC(=O)OC(CC(C)C)C(=O)NC1CCCC1)C(=O)CO2 (centres undefined),"inconclusive [inhibitor, partial curve, poor fit]",–
COc1ccccc1N1CCN(C(=O)C2CCCN(S(=O)(=O)c3ccc4c(c3)oc(=O)n4C)C2)CC1 (centres undefined),inactive,–
O=C(Nc1ccc2oc(=O)ccc2c1)c1ccc(-c2cccc(Cl)c2)o1,"inconclusive [inhibitor, single point]",–
O=C(CCCCCNC(=O)N1CCn2c1nc1ccccc12)N[C@@H](Cc1ccccc1)C(=O)O,"inconclusive [inhibitor, partial curve, poor fit]",–
CSC1=NSC2=NC(=O)/C(=C/c3coc4ccc(O)cc4c3=O)C(=N)N12,"inconclusive [inhibitor, single point]",–
Cc1ccc(N2CCN(C(=S)Nc3ccccc3C)CC2)cc1,"inconclusive [inhibitor, full curve, poor fit]",–
Cc1cc2c(cc1S(=O)(=O)NCC(C)c1ccccc1)n(C)c(=O)c(=O)n2C (centres undefined),"inconclusive [inhibitor, full curve, poor fit]",–
COCCCNc1oc(COc2ccc(Cl)cc2Cl)nc1C#N,–,inactive: -9.48%

SMILES,Potency,"activity change, negative = inhibition"
Cc1ccc2c(c1)Oc1ccc(NC(=O)CCCl)cc1C(=O)N2,"inconclusive [inhibitor, full curve, poor fit]",–
O=C(NCc1ccccc1Cl)c1ccc(-c2ccccc2)cc1,"inconclusive [inhibitor, full curve, poor fit]",–
CN(C)c1ccc(C(=O)OCc2ccccc2)cc1,"inconclusive [inhibitor, full curve, poor fit]",–
COc1ccc(CCN(C(=O)c2cccc(F)c2)C2CC(=O)N(c3ccc(OC)cc3)C2=O)cc1 (centres undefined),"inconclusive [inhibitor, partial curve]",–
COc1ccc(C(=O)Oc2cc(C)c(CN3CCOCC3)cc2C)cc1OC,–,inactive: -0.115%
COc1ccc(N=C(N)N=C(N)N)c(OC)c1,–,inactive: -6.52%
O=C(O)/C=C/C(=O)NCc1ccccc1,–,inactive: -13.3%
O=C(CSc1ccc(Cl)cc1)N/N=C/c1ccc([N+](=O)[O-])o1,–,inactive: -1.48%
CCn1c(NCc2ccc(N(C)C)cc2)nc2ccccc21,"inconclusive [inhibitor, full curve, poor fit]",–
OCC1(CCCc2ccccc2)CCN(Cc2cnc(N3CCOCC3)s2)CC1,–,inactive: 0.838%
O=C(c1nc2ccccc2[nH]1)c1ccccc1[N+](=O)[O-],"inconclusive [inhibitor, single point]",–
NS(=O)(=O)c1ccc(CNC(=O)c2ccc(Cl)cc2[N+](=O)[O-])cc1,"inconclusive [inhibitor, partial curve, poor fit]",–
Cc1ccn2c(=O)nc(SCC(=O)NCc3ccco3)nc2c1,–,inactive: 4.56%
CN1C(=O)NC2C1N(S(C)(=O)=O)CCN2S(C)(=O)=O (centres undefined),"inconclusive [inhibitor, partial curve, poor fit]",–
CC(=O)CSc1nc(-c2ccccc2)c(-c2ccccc2)o1,"inconclusive [inhibitor, full curve, poor fit]",–
Cc1ccc(NC(=O)c2ccc([N+](=O)[O-])o2)cc1C,"inconclusive [inhibitor, full curve]",–
O=C(CCc1n[nH]c(=O)[nH]c1=O)N1CCCCC1,"inconclusive [inhibitor, partial curve]",–
COc1ccccc1-n1c(Cc2cccs2)n[nH]c1=S,–,inactive: -11.5%
Cc1ccc(S(=O)(=O)c2nc(Nc3nccs3)sc2Cl)cc1,"inconclusive [inhibitor, full curve]",–
O=C1CC(N2CCN(C3CC(=O)N(CCc4ccccc4)C3=O)CC2)C(=O)N1CCc1ccccc1 (centres undefined),–,inactive: -6.89%
Cn1c(=O)c2c(nc(CN3CCC(C(N)=O)CC3)n2Cc2ccccc2Cl)n(C)c1=O,"inconclusive [inhibitor, full curve]",–
COc1ccc(S(=O)(=O)N2CCOCC2)cc1NC(=O)CN(C)Cc1c(F)cccc1Cl,–,inactive: -4.19%
